Measurements: PubChem BioAssay AID504706 (National Center for Advancing Translational Sciences (NCATS), 2011)
Screen size: about 320,000 compounds; about 200 (0.062%) were called active. This list was built around the results that the source calls inconclusive (neither active nor inactive); the mix of calls is not that of the screen. The call rests on the fitted dose curve; in most records, active means well fitted activation curve with a large enough effect; inconclusive means small, poorly fitted or top-dose-only effect; inactive means no such curve, though single readings can be large or run the other way. No potency is given beside an inconclusive call; the fits are too rough.

Test: qHTS assay for re-activators of p53 using a Luc reporter; further: nearly all actives have a fitted effect of over 45% in size; on activity change, positive = activation: % of control where 0% means no effect
Conditions: H1299 p53-A138V BP100-luciferase reporter, luminescence, 24 h; series mostly up to 92.2 µM; activity change, positive = activation: at the top concentration
Method in brief: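 H1299 (p53-null), stable ts p53-A138V + BP100-Luc; 1000 cells/well, Opti-MEM/10% FBS; cpd 4 pt, 1:5; 24 h, 37 deg C, 5% CO2; detection reagent 10 min RT; luminescence.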
Potency means the concentration at half of the fitted maximal effect; tags describe the fitted curve by direction and shape.

Compound	Potency	activity change, positive = activation
CN(C)CC(CCCCC(CN(C)C)C(=O)c1ccccc1)C(=O)c1ccccc1 (stereo not given)	inconclusive [activator, single point]	–
CS(=O)(=O)NCc1ccc(C(=O)NCCOc2ccccc2)cc1	inconclusive [activator, full curve, poor fit]	–
C=CCc1cc(OC)ccc1OCC(O)CN1CCN(c2ccc(OC)cc2)CC1 (stereo not given)	inactive	–
Cc1oc2cc(Br)c(O)c(Br)c2c1-c1ccccc1	inconclusive [activator, full curve, poor fit]	–
Cc1nc(-c2ccc(NC(=O)c3ccc(Br)o3)cc2)cs1	–	inactive: 19.9%
COC(=O)/C(C#N)=C/c1c(N2CCN(c3ccc(OC)cc3)CC2)nc2c(C)cccn2c1=O	–	inactive: -4.15%
Cc1c(C(=O)N2CCN(C)CC2)oc2ccc(Br)cc12	inconclusive [activator, full curve, poor fit]	–
COc1ccccc1NS(=O)(=O)c1cccc(C(=O)NN)c1	–	inactive: -5.04%
Cc1cccc(N/N=C2/COC(C)(C)CC2=O)c1	inconclusive [activator, partial curve, poor fit]	–
C/C(=C\c1ccccc1)CN1CCC(C(=O)N2CCCC(C)C2)CC1 (stereo not given)	inconclusive [activator, single point]	–
Cc1ccc(/C=C/C(=O)NC2=NCCS2)cc1	inconclusive [activator, full curve, poor fit]	–
CCc1nc(SCC(=O)Nc2nccs2)c2oc3ccccc3c2n1	inconclusive [activator, single point]	–
CCn1c(SCC(=O)NC(=O)NCc2ccco2)nc2sc(C)c(C)c2c1=O	–	inactive: 1.19%
COc1ccc(N)cc1-n1c(C)ccc1C	inconclusive [activator, full curve, poor fit]	–
O=C(c1cccc([N+](=O)[O-])c1)N1CCN(c2n[nH]c(=O)[nH]c2=O)CC1	–	inactive: -0.262%
O=C(Nc1cccnc1)c1cc(F)c(F)cc1Cl	–	inactive: -1.68%
CCCN(C(=O)CCNC(=O)c1ccc(Cl)cc1)c1c(N)n(Cc2ccccc2)c(=O)[nH]c1=O	–	inactive: 4.21%
CCOC(=O)c1sc(NC(=O)Nc2ccccc2Cl)cc1C	inconclusive [activator, partial curve, poor fit]	–
Oc1ccc(-c2nnc(SCC3CCCCC3)o2)cc1	inconclusive [activator, partial curve, poor fit]	–
Cc1ccc(NC(=O)CN2C(=O)S/C(=C/c3ccc(-c4cc(C(=O)O)ccc4C)o3)C2=O)cc1C	–	inactive: -6.08%
